Reference: article PMC7938106, “In vitro complex formation of human PYRIN domain-only protein 3 prevented by self-oligomerization of ASC PYD domain” (Saudi Journal of Biological Sciences, 2021)

Biological target: the molecule itself
Assay: SEC; each protein alone on Superdex 200 in 20 mM Tris-HCl pH 8.0, 150 mM NaCl

B1: ASC PYD domain, […] (domain or fragment)
chain: not shown
notes: ASC (apoptosis-associated speck-like protein containing a CARD), human, N-terminal PYD domain, […]; The vector probably adds linker residues before the His6; also called ASCPYD ([…] aa); ASC-PYD-2
  binding result: binds
